{
  "source": "PubChem BioAssay AID1347417",
  "about": "(National Center for Advancing Translational Sciences (NCATS), 2020)",
  "note": "Among all 120,000 compounds or so, about 5,300 (4.4%) were called active. Inconclusive means that the source gave no clear call. Such entries were picked first, then a sample of the others. Calls come from the whole dose curve; as a rule, active = well fitted inhibition curve with a large enough effect; inconclusive = small, poorly fitted or top-dose-only effect; inactive = no such curve, though single readings can be large or run the other way. Potencies of inconclusive entries are doubtful fits and often do not repeat. Potency is the fitted concentration of half-maximal effect; tags give direction and shape of the fitted curve.",
  "data": [
    {"assay": "qHTS Primary assay for Inhibitors of Plasmodium falciparum Dd2 growth in vitro; note: nearly all actives have a fitted effect of over 65% in size", "conditions": "P. falciparum Dd2 growth, SYBR Green, 72 h; series mostly up to 28.9 µM", "summary_of_the_method": "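Readout: SYBR Green fluorescence, 485 nm excitation, 535 nm emission, after ~16 h lysis at 37C. Before that, Dd2-infected red cells (2.5% hematocrit) grew 72 h with compound, 29 uM top final concentration.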", "values": [
      {"smiles": "COc1ccc2[nH]cc(CCNC(=O)c3cnn(-c4ccc(C)cc4)c3C3CCN(C(=O)OC(C)(C)C)CC3)c2c1", "Potency": "active: 3.16 µM"},
      {"smiles": "COc1ccc(S(N)(=O)=O)cc1C(=O)NC1CCOC2(CCOCC2)C1", "note": "(stereo not drawn)", "Potency": "inactive"},
      {"smiles": "O=C(NC1CCCCC1)[C@@H]1C[C@@H](O)CN1C1CCN(C(=O)C2CCOCC2)CC1", "Potency": "inactive"},
      {"smiles": "CC(C)(CC(=O)O)CC(=O)N[C@H]1C[C@H]2C(=O)Nc3ccc(-c4ccsc4)cc3C(=O)N2C1", "Potency": "inactive"},
      {"smiles": "CCOC(=O)c1c(NC(=O)COc2ccc(C)cc2C(C)(C)C)sc2c1CCC(C)C2", "note": "(stereo not drawn)", "Potency": "inconclusive: 17.8 µM [inhibitor, single point]"},
      {"smiles": "CCOc1cccc2c1Oc1nc(-c3ccccc3)nc(SCC(=O)Nc3ccc(F)cc3)c1C2", "Potency": "active: 7.94 µM"},
      {"smiles": "O=C(c1ccccc1Cl)N1CCCCC1CCN1CCOCC1", "note": "(stereo not drawn)", "Potency": "inactive"},
      {"smiles": "O=C1CCCN1CC(=O)N1CCC(c2nc(CCOc3ccc(F)cc3)no2)C1", "note": "(stereo not drawn)", "Potency": "inactive"},
      {"smiles": "Cc1ccc(-c2nnc(Nc3ccc(F)cc3)c3ccccc23)cc1S(=O)(=O)N1CCN(C)CC1", "Potency": "active: 10 µM"},
      {"smiles": "Cc1ccc(CNCc2cccn2-c2nnc(N3CCCC3)s2)cc1", "Potency": "inconclusive: 10 µM [inhibitor, single point]"},
      {"smiles": "Cc1cc(C)c2c(CC(=O)N3CCc4c(nc[nH]c4=O)C3)coc2c1C", "Potency": "inactive"},
      {"smiles": "CCc1cc(=O)n(CC(=O)Nc2cccc(SC)c2)c(N2CCOCC2)n1", "Potency": "inconclusive: 3.98 µM [inhibitor, single point]"},
      {"smiles": "O=C(NC1CCCCC1)N1CCc2n[nH]c(=O)n2CC1", "Potency": "inactive"},
      {"smiles": "Cn1cc(C(=O)N2[C@H]3CC[C@@H]2c2cnc(-c4ccccc4)nc2C3)cn1", "Potency": "inconclusive: 0.562 µM [inhibitor, partial curve]"},
      {"smiles": "CS(=O)(=O)c1ccc(O[C@H]2COCCN(C3CCC3)C2)cc1", "Potency": "inactive"},
      {"smiles": "Cc1nonc1CC(=O)N1C[C@H](O)[C@@H](N2CCC(O)CC2)C1", "Potency": "inactive"},
      {"smiles": "Cc1cc2n(n1)CCC(=O)N2Cc1ccc(C(=O)Nc2ccc(F)cc2F)cc1", "Potency": "inactive"},
      {"smiles": "COc1ccccc1-c1nc(C(=O)NCc2cccs2)n2ccncc12", "Potency": "inconclusive: 3.98 µM [inhibitor, single point]"},
      {"smiles": "COc1ccc(-c2nc3scc(CCNC(=O)c4cccc(Br)c4)n3n2)cc1", "Potency": "active: 1 µM"},
      {"smiles": "COc1ccc(NC(=O)c2sc3nc4c(c(-c5ccc(OC)cc5)c3c2N)C(=O)CC(C)(C)C4)cc1", "Potency": "active: 1 µM"},
      {"smiles": "COc1cc2c(cc1OCC1CC1)NC(=O)C21CCN(CCC(C)C)CC1", "Potency": "inconclusive: 11.2 µM [inhibitor, single point]"},
      {"smiles": "CCOC(=O)c1ccc(N2C(=O)c3[nH]nc(-c4ccc(OCC)cc4)c3C2c2cccs2)cc1", "note": "(stereo not drawn)", "Potency": "active: 2.82 µM"},
      {"smiles": "CCOC(=O)c1ccc(NC(=O)CC2Nc3ccccc3NC2=O)cc1", "note": "(stereo not drawn)", "Potency": "active: 12.6 µM"},
      {"smiles": "O=S1(=O)NCC2(CCN(Cc3c[nH]c4ccccc34)C2)Oc2ncccc21", "note": "(stereo not drawn)", "Potency": "inactive"},
      {"smiles": "Cc1cccc(-c2noc([C@@H]3Cc4nc[nH]c4CN3C(=O)c3ccccc3C(=O)O)n2)c1", "Potency": "inconclusive: 15.8 µM [inhibitor, partial curve]"},
      {"smiles": "Cc1ccc(CCNC(=O)c2cc3n(n2)CCCN(Cc2ccc(C)cc2)C3=O)cc1", "Potency": "inconclusive: 12.6 µM [inhibitor, single point]"},
      {"smiles": "O=S(=O)(NCC1CCOCC1)c1ccccc1F", "Potency": "inactive"},
      {"smiles": "Cc1ccc(C(=O)N2C[C@H](c3nc(-c4cccnc4)no3)[C@@H](C)C2)c(C)c1", "Potency": "inactive"},
      {"smiles": "COc1ccccc1CN1CCN(C(=O)C2CCCN(Cc3cccnc3)CCC(=O)NCC2)CC1", "note": "(stereo not drawn)", "Potency": "inconclusive: 7.94 µM [inhibitor, single point]"},
      {"smiles": "CCN(Cc1ccccc1)C(=O)c1cc2c(=O)[nH]c3ccc(C)cc3c2s1", "Potency": "inconclusive: 3.16 µM [inhibitor, full curve, poor fit]"},
      {"smiles": "Cc1ccc(CN2CCCOCCNC(=O)[C@@H]3CCCC[C@@H]32)o1", "Potency": "inconclusive: 3.98 µM [inhibitor, full curve]"},
      {"smiles": "CN(C)C[C@@H]1CN(S(C)(=O)=O)C[C@H]1NC(=O)CCC1CCCC1", "Potency": "inconclusive: 1.58 µM [inhibitor, partial curve, poor fit]"},
      {"smiles": "Cc1ccc(NC(=O)c2cc(S(=O)(=O)NC3CCCCC3)ccc2F)cc1Cl", "Potency": "inconclusive: 10 µM [inhibitor, partial curve, poor fit]"},
      {"smiles": "O=[S+]([O-])(c1cccc(C(F)(F)F)c1)N1CCn2c(nnc2C2CCCNC2)C1", "note": "(stereo not drawn)", "Potency": "inactive"},
      {"smiles": "Cc1nn2c(c1-c1ccccc1OCc1ccccc1)N(C(=O)Cc1ccccc1)CCC2", "Potency": "inconclusive: 3.55 µM [inhibitor, full curve, poor fit]"},
      {"smiles": "CN1CCCCCCN(C(=O)c2ccc3ccccc3n2)[C@H]2CCC[C@H]2C1=O", "Potency": "active: 6.31 µM"},
      {"smiles": "COc1ccc(NC(=O)N2CCCC(Cn3c(C4CC4)nc4cccnc43)C2)cc1Cl", "note": "(stereo not drawn)", "Potency": "inconclusive: 1.41 µM [inhibitor, full curve, poor fit]"},
      {"smiles": "Cn1c(=O)c(=O)n(C)c2cc(N3CCCC3)c(NC(=O)c3ccccc3F)cc21", "Potency": "inconclusive: 0.0079 µM [inhibitor, full curve, poor fit]"},
      {"smiles": "CC(C)CNC(=O)c1cccc2c1CCN2C(=O)c1ccc(F)cc1", "Potency": "inconclusive: 11.2 µM [inhibitor, partial curve, poor fit]"},
      {"smiles": "CCCCn1cc(S(=O)(=O)c2ccc(C)c(C)c2)c(=O)c2cc(F)c(N(CC)CC)cc21", "Potency": "active: 12.6 µM"},
      {"smiles": "COCCN1C(=O)[C@H]2CN(Cc3cccc(OC)c3)C[C@H]2C1=O", "Potency": "inactive"},
      {"smiles": "Cn1nc(C(=O)NCc2ccccc2Cl)c2c1-c1ccccc1S(=O)(=O)C2", "Potency": "inconclusive: 12.6 µM [inhibitor, single point]"},
      {"smiles": "COc1ccc(Cl)cc1NC(=O)C1CCN(S(=O)(=O)c2ccc3c(c2)CC(C)N3C(C)=O)CC1", "note": "(stereo not drawn)", "Potency": "inconclusive: 17.8 µM [inhibitor, single point]"},
      {"smiles": "CCOc1ccc(C(=O)N2CCC(N3C(=O)CCC3C(=O)NC(C)C)CC2)cc1", "note": "(stereo not drawn)", "Potency": "inactive"},
      {"smiles": "O=C1CCN(S(=O)(=O)c2ccccc2)CCCN(C(=O)COc2ccccc2)CCN1", "Potency": "inactive"},
      {"smiles": "CCNC(=O)N1CCCCCCNC(=O)[C@@H]2C[C@@H](c3nc(Cc4ccccc4)no3)C[C@@H]21", "Potency": "inactive"},
      {"smiles": "O=S(=O)(c1ccc(Br)cc1)c1nnn2c1nc(NCc1ccc3c(c1)OCO3)c1sccc12", "Potency": "inconclusive: 11.2 µM [inhibitor, single point]"},
      {"smiles": "CCCSc1ncc(Cl)c(C(=O)Nc2c(C(=O)Nc3ccc(OC)cc3)oc3ccccc23)n1", "Potency": "inconclusive: 3.55 µM [inhibitor, single point]"},
      {"smiles": "CCN(CC)CCNC(=O)C12CCCC=C1N(Cc1ccccc1)C(=O)CC2", "note": "(stereo not drawn)", "Potency": "inconclusive: 2 µM [inhibitor, full curve, poor fit]"},
      {"smiles": "c1ccc(-c2nnc3n2CCN(Cc2cn(-c4ccccc4)nn2)CC3)cc1", "Potency": "inconclusive: 10 µM [inhibitor, single point]"},
      {"smiles": "COc1cc(OC)cc(C(=O)NCC2CCCN(C/C=C/c3ccccc3OC)C2)c1", "note": "(stereo not drawn)", "Potency": "active: 8.91 µM"},
      {"smiles": "N#Cc1ccc(CN2CCC3(CC2)CNc2ccccc2[S+](=O)([O-])N3)cc1", "Potency": "inconclusive: 2.82 µM [inhibitor, single point]"},
      {"smiles": "Cc1ccc(Cc2ccccc2C(=O)N2CCC3(CC2)CNC(=O)C3)cc1F", "Potency": "inactive"},
      {"smiles": "COc1ccccc1N1CCN(C(CNC(=O)C(=O)NCc2ccc(F)cc2)c2cccnc2)CC1", "note": "(stereo not drawn)", "Potency": "inconclusive: 17.8 µM [inhibitor, single point]"},
      {"smiles": "CN1c2cc(C(=O)Nc3ccc(F)c(F)c3)ccc2C(=O)N2CCCCC21", "note": "(stereo not drawn)", "Potency": "inconclusive: 3.98 µM [inhibitor, single point]"},
      {"smiles": "Cc1cc(=O)n(CC(=O)Nc2cccc(C(F)(F)F)c2)c(N2CCN(c3ccccc3)CC2)n1", "Potency": "inconclusive: 20 µM [inhibitor, single point]"},
      {"smiles": "CCS(=O)(=O)c1ncc(Cl)c(C(=O)Nc2c(C(=O)Nc3cccc(C)c3)oc3ccccc23)n1", "Potency": "inactive"},
      {"smiles": "Cc1ccc(-c2c(C(=O)N3CCN(c4cc(Cl)ccc4C)CC3)oc(=O)c3ccccc23)cc1", "Potency": "inconclusive: 10 µM [inhibitor, single point]"},
      {"smiles": "COCC(=O)N1CCC2(CC1)Nc1ccccc1NC2=O", "Potency": "inactive"},
      {"smiles": "O=C(CSc1cn(CCNC(=O)c2c(F)cccc2F)c2ccccc12)Nc1ccc(F)cc1", "Potency": "inconclusive: 17.8 µM [inhibitor, single point]"},
      {"smiles": "Cc1ccc(C2Cn3nnc(C(=O)N4CCN(C(=O)c5ccsc5)CC4)c3CO2)cc1", "note": "(stereo not drawn)", "Potency": "inactive"},
      {"smiles": "O=C1N[C@H](CC(=O)N2CCC(c3nc4ccccc4[nH]3)CC2)C(=O)Nc2ccccc21", "Potency": "inactive"},
      {"smiles": "COc1ccc(CNCc2c(C(=O)O)c(C)n(Cc3ccccc3C)c2C)c(OC)c1", "Potency": "inconclusive: 20 µM [inhibitor, single point]"},
      {"smiles": "COc1ccc(Nc2cc(C)c3cc(NC(=O)Cc4ccc(Cl)cc4)ccc3n2)cc1", "Potency": "inconclusive: 1 µM [inhibitor, single point]"},
      {"smiles": "Cc1ccsc1CN1CCCN(S(C)(=O)=O)C(c2ccccc2)CC(=O)NCC1", "note": "(stereo not drawn)", "Potency": "inconclusive: 0.398 µM [inhibitor, full curve, poor fit]"},
      {"smiles": "Cc1nn(Cc2ccccc2)c(C)c1[C@@H]1C=C[C@@H](NC(=O)CCCC(=O)O)C1", "Potency": "inconclusive: 25.1 µM [inhibitor, single point]"},
      {"smiles": "COc1ccc(CN[C@@H]2CO[C@H](CNC(=O)c3ccccc3)[C@H]2O)cc1", "Potency": "inactive"},
      {"smiles": "COc1ccc(Cn2ccc3nc(C)c(C(=O)N4CCN(c5ccc(OC)cc5)CC4)cc3c2=O)cc1", "Potency": "inconclusive: 10 µM [inhibitor, single point]"}
    ]}
  ]
}
